Measured values taken from PubChem BioAssay AID485344 (National Center for Advancing Translational Sciences (NCATS), 2010).
Where “and” joins values, the source holds several entries; their conditions need not be identical. Identical values can stand only once. Among all 340,000 compounds or so, about 6,900 (2%) were called active. No stated cut-off is given here; in the data, active means inhibition above about 30%; inactive means below that, where a call was filed. Only a part is listed here, and it is no random draw. Entries without a call were filed so in the source.

Molecular target: D(2) dopamine receptor (Homo sapiens) (UniProt P14416)
Assay: HTS Assay for Allosteric Antagonists of the Human D2 Dopamine Receptor: Primary Screen for Antagonists; further: 0% is about no effect
Settings: HEK293 TREx D2 cells, calcium flux, dopamine EC80; at 10 µM; stronger effect = higher value
Outline: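 HEK293 T-REx D2 cells, tet-induced, calcium dye no-wash. Cpd pintool add, 180 s kinetic, then EC80 DA, 180 s kinetic. Ca flux read.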

UniProt P14416, sequence (P14416 whole entry, looked up): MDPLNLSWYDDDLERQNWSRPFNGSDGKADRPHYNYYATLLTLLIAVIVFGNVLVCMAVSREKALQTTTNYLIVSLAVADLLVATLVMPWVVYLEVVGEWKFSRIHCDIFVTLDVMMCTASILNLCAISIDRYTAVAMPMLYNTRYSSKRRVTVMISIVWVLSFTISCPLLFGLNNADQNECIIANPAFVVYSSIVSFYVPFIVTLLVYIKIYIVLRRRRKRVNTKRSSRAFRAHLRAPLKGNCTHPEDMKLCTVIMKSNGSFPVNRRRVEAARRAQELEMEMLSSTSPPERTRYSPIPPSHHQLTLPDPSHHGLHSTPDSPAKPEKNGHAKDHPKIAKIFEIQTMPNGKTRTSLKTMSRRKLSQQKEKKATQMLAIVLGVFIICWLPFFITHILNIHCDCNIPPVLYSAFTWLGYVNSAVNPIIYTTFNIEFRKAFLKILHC

| Compound | inhibition |
| --- | --- |
| CCOc1ccc(-c2cnc(NCc3cccc(Cl)c3)n2C)cc1 | -3.91% |
| COc1ccc(CCNC(=O)Cn2c(=O)c3cccn3c3ccc(F)cc32)cc1OC | 18.7% |
| COc1ccc(C(=O)CCC(=O)Nc2cccc(C(C)=O)c2)cc1 | 15.9% |
| Cc1c(Cl)cccc1NC(=S)NC1CCN(Cc2ccccc2)CC1 | active: 85.3% |
| Cc1ccc(Nc2ccccc2)cc1 | active: 40.5% |
| Cc1ccc(Cn2c(=O)n(Cc3ccc(Cl)cc3)c(=O)c3cccnc32)cc1 | 5.26% |
| CCOc1ccc(NC(=O)CSc2nnc(NC(=O)Nc3ccccc3)s2)cc1 | -12.7% |
| Cc1nc2cc(-c3cccc(F)c3)nn2c(C)c1CCC(=O)NC1CCCCC1 | -13.4% |
| COc1ccc(-c2nn(C)c3sc(C(=O)N4CCN(c5cc(Cl)ccc5C)CC4)cc23)cc1OC | -6.51% |
| O=C(c1ccc2c(c1)N(Cc1cccc(Cl)c1)C(=O)c1ccccc1S2(=O)=O)N1CCN(c2cccc(C(F)(F)F)c2)CC1 | -2.04% |
| CCOc1ccc(-c2nonc2NC(=O)COc2ccc(C)c(C)c2)cc1OCC | 6.82% |
| Cc1ccc(NC(=O)CN2C(=O)CCc3cc(S(=O)(=O)N4CCOCC4)ccc32)c(C)c1 | 18.7% |
| CCOc1ccc(CNC(=O)c2sc3nc(C)cc(C)c3c2-n2cccc2)cc1 | 10.8% |
| Cc1cc2oc(C(=O)Nc3nc(-c4ccccc4)ns3)c(C)c2cc1Cl | -10.3% |
| CN1CCN(C(CNC(=O)C(=O)Nc2ccc(F)cc2)c2cccnc2)CC1 (configuration not stated) | -7% |
| CC(=O)c1ccc(NS(=O)(=O)c2ccc3[nH]c4c(c3c2)CCCCCC4)cc1 | 2.35% |
| CCC(CC)C(=O)N1CCc2cc(OC)c(OC)cc2C1COc1ccccc1OC (configuration not stated) | 28.2% |
| Cc1ccc(C)c(Cn2nnc(C(=O)NCc3ccccc3)c2N)c1 | 16.1% |
| CN1CCN(CCCN2c3ccccc3Sc3ccc(Cl)cc32)CC1 | active: 78.7% and active: 78.4% and active: 71.9% |
| CCC(=O)N1CCc2cc(S(=O)(=O)CCC(=O)N3CCN(c4ccccc4F)CC3)ccc21 | 2.22% |
| Cc1ccc(CNC(=O)c2cc3sccc3n2Cc2ccc(F)cc2)cc1 | 6.99% |
| CCCCN1CCCc2cc(CN(CCCN3CCOCC3)C(=O)Nc3ccc(CC)cc3)ccc21 | 15.8% |
| CCOC(=O)c1c(-c2ccc(OC)c(OC)c2)csc1NC(=O)c1ccc(C)cc1 | -3.42% |
| COc1ccc(-c2[nH]nc3oc(=O)cc(C)c23)cc1 | active: 33.4% |
| O=C(O)c1cccc(NC(=O)c2cc3cc(Br)cc(Br)c3oc2=O)c1 | -13.4% |
| O=C(NCc1ccc(F)cc1)c1cc2cccc3c2n1CCS3 | -3.68% |
| CC(=O)c1cccc(NC(=O)Cc2ccc(NC(=O)N3CCCCc4ccccc43)cc2)c1 | 2.17% |
